Test results as given in the antibiotic and cytotoxicity screens of Wong et al. (2023).
The other results are listed elsewhere or left out.

Legend:
HSkMC = human skeletal muscle cells; test: cytotoxicity call (relative viability < 0.9); settings: 10 µM
HepG2 = test: cytotoxicity call (relative viability < 0.9); settings: 10 µM
S. aureus RN4220 = test: growth inhibition call (relative growth <= 0.2); settings: 50 µM

C[C@H]1CCCCO[C@H](CN(C)Cc2ccc(Cl)c(Cl)c2)[C@@H](C)CN([C@@H](C)CO)C(=O)c2cc(NC(=O)Nc3cccc4ccccc34)ccc2O1
cytotoxicity call (HSkMC): inactive
cytotoxicity call (HepG2): inactive
growth inhibition call (S. aureus RN4220): inactive

O=C(C[C@@H]1CC[C@@H]2[C@H](COC[C@H](O)CN2S(=O)(=O)c2ccccc2)O1)NCCN1CCCCC1
cytotoxicity call (HSkMC): inactive
cytotoxicity call (HepG2): inactive
growth inhibition call (S. aureus RN4220): inactive

O=C(C[C@H]1CC[C@@H](NC(=O)Nc2ccc3c(c2)OCO3)[C@H](CO)O1)NCCCN1CCOCC1
cytotoxicity call (HSkMC): inactive
cytotoxicity call (HepG2): inactive
growth inhibition call (S. aureus RN4220): inactive

C[C@H](CO)N1C[C@H](C)[C@@H](CN(C)Cc2ccncc2)Oc2ccc(NC(=O)Nc3ccc(C(F)(F)F)cc3)cc2C1=O
cytotoxicity call (HSkMC): inactive
cytotoxicity call (HepG2): inactive
growth inhibition call (S. aureus RN4220): inactive

Cc1noc(C)c1S(=O)(=O)Nc1ccc2c(c1)C(=O)N([C@H](C)CO)C[C@H](C)[C@@H](CN(C)S(C)(=O)=O)O2
cytotoxicity call (HSkMC): inactive
cytotoxicity call (HepG2): inactive
growth inhibition call (S. aureus RN4220): inactive

C[C@H](CO)N1C[C@H](C)[C@H](CN(C)S(=O)(=O)c2ccc(Cl)cc2)Oc2ccc(NS(C)(=O)=O)cc2C1=O
cytotoxicity call (HSkMC): inactive
cytotoxicity call (HepG2): inactive
growth inhibition call (S. aureus RN4220): inactive

Cc1noc(C)c1NC(=O)Nc1ccc2c(c1)C(=O)N([C@@H](C)CO)C[C@H](C)[C@H](CN(C)S(=O)(=O)c1ccc(F)cc1)OCCCC[C@H](C)O2
cytotoxicity call (HSkMC): inactive
cytotoxicity call (HepG2): inactive
growth inhibition call (S. aureus RN4220): inactive

C[C@@H]1CN([C@H](C)CO)C(=O)c2cc(NC(=O)Cn3cnnn3)ccc2O[C@@H]1CN(C)C(=O)Nc1ccc(C(F)(F)F)cc1
cytotoxicity call (HSkMC): inactive
cytotoxicity call (HepG2): inactive
growth inhibition call (S. aureus RN4220): inactive

C[C@@H]1CN([C@H](C)CO)S(=O)(=O)c2ccc(/C=C/c3ccccc3)cc2O[C@H]1CN(C)C(=O)CN1CCOCC1
cytotoxicity call (HSkMC): inactive
cytotoxicity call (HepG2): inactive
growth inhibition call (S. aureus RN4220): inactive

CC(C)N1C[C@@H](CO)CC1=O
cytotoxicity call (HSkMC): inactive
cytotoxicity call (HepG2): inactive
growth inhibition call (S. aureus RN4220): inactive

C=CCNc1ncnc2c1cnn2C
cytotoxicity call (HSkMC): inactive
cytotoxicity call (HepG2): inactive
growth inhibition call (S. aureus RN4220): inactive

COc1ccc(S(=O)(=O)N(C)C[C@H]2Oc3ccc(NC(=O)c4ccncc4)cc3C(=O)N([C@@H](C)CO)C[C@H]2C)cc1
cytotoxicity call (HSkMC): inactive
cytotoxicity call (HepG2): inactive
growth inhibition call (S. aureus RN4220): inactive

O=C(N[C@H](c1ccc(Cl)cc1)c1cnccn1)C1CCN(Cc2ccc(Oc3ccccc3)cc2)CC1
cytotoxicity call (HSkMC): inactive
cytotoxicity call (HepG2): active
growth inhibition call (S. aureus RN4220): active

C[C@@H]1CCCCO[C@@H](CN(C)Cc2ccc(C(F)(F)F)cc2)[C@H](C)CN([C@@H](C)CO)C(=O)c2cc(NC(=O)Nc3ccccc3)ccc2O1
cytotoxicity call (HSkMC): inactive
cytotoxicity call (HepG2): inactive
growth inhibition call (S. aureus RN4220): inactive

C[C@@H]1CN([C@@H](C)CO)C(=O)c2cc(NS(=O)(=O)c3ccccc3)ccc2O[C@@H](C)CCCCO[C@H]1CN(C)C(=O)c1ccccc1
cytotoxicity call (HSkMC): inactive
cytotoxicity call (HepG2): inactive
growth inhibition call (S. aureus RN4220): inactive
